Measurements from the supplement of paper PMC10126150.
Values marked as one replicate rest on one cluster of the flow cell; about a third of the high ones do not repeat.

Tested on: ATP
Assay: switch fluorescence ratio, 500 uM ATP over buffer (Cy3 cluster intensity, sum of 5 cycles each) (fold (ratio)); higher = stronger signal-on switching upon ATP binding; sequences stand for … in TCGTCGGCAGCGTCAGATGTGTATAAGAGACAGTTTTTTTTTTTTTTTTTTTTTTTTT…TC
Settings: aptamer strand: ATP DNA aptamer (quencher-CACCTGGGGGAGTATTGCGGAGGAAGG + anchor), 100 nM annealed; ATP concentration: 500 uM; one replicate
Outline: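 Exposure to 500 uM ATP lasted 15 min at 22 °C before imaging, and a selection-buffer image was taken beforehand, for Cy3-labelled switching-strand clusters on a modified Illumina MiSeq flow-cell annealed to 100 nM quencher-labelled ATP aptamer. Five buffer/ATP cycles were run with NaOH stripping and re-annealing between them. The fluorescence ratio per cluster is summed target-cycle over summed buffer-cycle Cy3 intensity, averaged per switch-domain sequence. Clusters outside 100-1000 RFU were excluded.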

Row | Sequence | switch fluorescence ratio
1 | GATTTGGGCT | 0.989
2 | TCGGTAGCGG | 0.959
3 | ACCGTGCTAG | 1
4 | GTGGTGGGAG | 1.02
5 | CAGGGGCGAA | 1.02
6 | AGTCAAAATC | 0.994
7 | CAATTCATGA | 1.02
8 | TGCGATATAC | 2.59
9 | TTTTTATTCA | 1.03
10 | AAGGCGTGG | 1
11 | TGCCTGCCGA | 1.15
12 | AATTGCGGAC | 1
13 | CTTCTCATGT | 1
14 | AAAAGACGTG | 0.985
15 | GATTGAGTG | 0.981
16 | GCTCGACTTG | 1.04
17 | AGTATTTCA | 0.953
18 | TTGGTCTTGC | 1.08
19 | TTGAAACAGG | 1.03
20 | GGAACGTCCG | 0.993
21 | TGATCAAGGG | 1.02
22 | TAGGTGTTT | 1.03
23 | TGGTAGCCTA | 1.04
24 | CAGTGCTTG | 0.995
25 | GTTTGAATCG | 0.984
26 | AATATCAGGT | 1.04

Row | Sequence | switch fluorescence ratio
27 | ATGAGGGGC | 0.924
28 | CACTTACTAA | 1.22
29 | GACCATTTCA | 1.01
30 | GGACTCTGGT | 0.995
31 | TCGGATGGCA | 0.838
32 | AGCTATTCAT | 0.988
33 | GGCACTTTCT | 1.03
34 | GTAGTCTTTC | 1.02
35 | TTTTAGTAA | 1.05
36 | ACTAAGCCGT | 1.06
37 | AAATACTTAG | 1.05
38 | CGGGACTTCG | 1.01
39 | TGGAACGGAA | 1.05
40 | AAACATTCGG | 1.02
41 | TTGATTCCCT | 1.03
42 | GCAATCCGTG | 1.14
43 | AGTAGACTTT | 0.903
44 | GCGTCTAGCA | 0.959
45 | CAGTAGATTA | 1.03
46 | GACATGGTAG | 1.02
47 | CTTGAACTCT | 1
48 | GTCGCTCCGA | 1.02
49 | AGCTTGGATT | 1
50 | TGGTTCGATA | 1.01
51 | CTGAGGGACT | 1.05
52 | AGCGTTTTTA | 0.985

Row | Sequence | switch fluorescence ratio
53 | TGGTTAAACA | 1.02
54 | GACTGTAATG | 1.03
55 | GCCGAGATTT | 0.979
56 | GCCCTTGCCC | 1.02
57 | CTCCCGTCGT | 1.09
58 | GCTCGCTGGG | 0.999
59 | GGAGCTAATT | 3.42
60 | TTTCGCGAGC | 1.14
61 | AAATCTCTGG | 0.975
62 | CAAATCAACA | 1.01
63 | TGATGTACTA | 0.995
64 | TTGTATGATG | 0.985
65 | TAATAAAGGA | 1.03
66 | AAATCGTAAT | 0.991
67 | GACGGTCGGT | 0.967
68 | AGTCAAGACA | 1.03
69 | TGATACGGTG | 1.07
70 | CGTTAATTAA | 0.958
71 | TTTTGCCGCG | 0.989
72 | GGTATGGATT | 1
73 | GCCCACCAGA | 1.08
74 | GAAGCGAGTT | 1.08
75 | ATACCGGGAC | 1.17
76 | ACCAACAGCG | 1.05
77 | ATCGGAAGTG | 0.949
78 | ACCGCTAGGC | 1.52

Row | Sequence | switch fluorescence ratio
79 | TCAGGCCGTG | 1.05
80 | TGGGGGCCTA | 1.04
81 | TTTGTATAGA | 0.989
82 | CATGTGCGCC | 0.993
83 | ACGAATCAAG | 0.991
84 | TGCATGTTC | 1.98
85 | TCGATTGATT | 0.986
86 | GCAATACTTG | 6.1
87 | GGATGAGTAA | 0.97
88 | CGCTGAAGTG | 0.987
89 | GCAGTGACTT | 1.05
90 | TGTGTCACGG | 0.988
91 | CTCTTTGTGG | 0.975
92 | GATACTACGA | 1.05
93 | CGACCGTGGC | 1.23
94 | CATGGGAATC | 1.08
95 | GAGAATCGTA | 1
96 | TTACTTGCTT | 1.05
97 | CATAGGTGGG | 0.949
98 | CGAACCATTA | 1.04
99 | CTTTGAC | 0.988
100 | GTGTTAATGC | 1.1
101 | ATAGATAAGT | 0.999
102 | TTATCCACAC | 1.01
103 | AAAAGGGGA | 1.01
104 | AATATGGCAT | 0.996

Row | Sequence | switch fluorescence ratio
105 | TAGGTTGATT | 0.944
106 | CTGACTTTAC | 2.19
107 | TTGGTGTGGT | 0.995
108 | CGGAGCACC | 3.49
109 | GTATCCATGG | 1.07
110 | ACCCAGACAA | 1.07
111 | CGAGGGCGCA | 1.03
112 | AAAAAGCCAC | 1.07
113 | ACGGATCTTG | 0.999
114 | TTTCTCTGCT | 1.03
115 | TGCACGTTCC | 2
116 | CTGAGACAGT | 1.01
117 | CTGGTTTAAA | 0.964
118 | AGTAAATTGG | 0.929
119 | GCGAGAGAGG | 0.995
120 | CACCGCCAGC | 3.09
121 | GCAACGACGT | 0.982
122 | GGATGATGAG | 1
123 | GCTTCCAAGA | 1.17
124 | TTACGACCTT | 1.31
125 | CTTAGGTCTG | 1
126 | TGCTTCCTTC | 1.38
127 | TTGTCAATCA | 1.02
128 | GACTCACACA | 1.38
129 | GTCACTCGCT | 0.96
130 | AAGCACGATT | 1.22

Row | Sequence | switch fluorescence ratio
131 | AGACCTAAG | 0.984
132 | ACGGTAGTTA | 0.975
133 | TCACTGGAGT | 0.971
134 | GGCACAGTGC | 0.992
135 | TAACGGTATT | 1.13
136 | ATGCGTCGAG | 0.982
137 | ATCCATGCA | 0.991
138 | ATAATACGGA | 1.02
139 | GAATCCCCCG | 1.1
140 | AACAACTGTT | 0.84
141 | ATCGGGTCAC | 0.977
142 | TCGCATCGGC | 1.3
143 | GGAAGGCTGT | 1.04
144 | TAATACTCTT | 1.01
145 | CGGAGATAAA | 1.01
146 | TACCTTGTAC | 1.11
147 | CCGCTGCCCC | 3.34
148 | GAGCCAATGG | 1.09
149 | AGGGCTAGCG | 1.04
150 | CGAGGGGGCG | 1.11
151 | AACGTATTTG | 1.07
152 | GTTTTGCTAA | 1.02
153 | TTTTAAACCA | 1.01
154 | AACACAGCGA | 1.12
155 | TTTGTAGCA | 1.15
156 | TTGGATTTTA | 0.993

Row | Sequence | switch fluorescence ratio
157 | GCGTTAAC | 1.06
158 | TTTGAAATG | 0.995
159 | GCTCTCCTCG | 1.13
160 | CCGAGGCTGG | 1.67
161 | AAAGAGAAGA | 0.982
162 | GAACTAGGAA | 0.969
163 | GTATACCGCT | 1.05
164 | AACCACAAGT | 1.04
165 | GAAAGTAAAG | 1.04
166 | TACGACTGG | 0.963
167 | CGAGGTCGGT | 0.995
168 | TCCTGTAGGG | 0.95
169 | AGGTAGCAGG | 1.15
170 | AAGATAGAGG | 0.978
171 | AGTGAGAGCT | 1.03
172 | CACGGAAAAG | 0.971
173 | TCTAAATCTA | 0.998
174 | CCGTTATTGA | 1.06
175 | GACAATTTTG | 0.965
176 | GTACCCGCGG | 1.06
177 | ACATACTGGG | 1.35
178 | CCCAGGAGGG | 1.02
179 | TGAAATCAGC | 0.998
180 | GCGAATGTGC | 1
181 | AATTACTGT | 1.02
182 | CTCCAGCACG | 2.85

Row | Sequence | switch fluorescence ratio
183 | TGCGTTTGAG | 1.01
184 | ATGAGCGTAC | 1.45
185 | CTTGGGTAC | 1
186 | CGGTAATAAA | 1
187 | TCACTCTCTG | 1.01
188 | CCCCATATGA | 1.08
189 | CGGCGGATAT | 1.02
190 | AAAGCTGCAC | 1.28
191 | GCTCACTTCT | 0.99
192 | ACACGATGCG | 1.01
193 | GAAGCTCTAA | 1.06
194 | AATCCCTCAC | 1.07
195 | GGTGCTGCCA | 0.973
196 | CCTTACCGCG | 1.32
197 | TCAAAGCATA | 1.43
198 | CAGTAACGAT | 1
199 | GGTTCTGGGA | 1.03
200 | TCGCAGAAAT | 0.986
201 | GATGGGTA | 1.05
